Experimental data reported in article PMC6451091.
Some of the results follow. For part of these data: At the low end of the ranking the order means little. For part of these data: The protein was read in a cell extract, so binding may be indirect.

What was measured:
Settings in all cases: 20 mM HEPES pH 7.9, 100 mM NaCl, 1 mM DTT, 0.2 mg/mL BSA, 0.02% Triton X-100, 2% milk, 0.4 mg/mL salmon testes DNA; 1 h; temperature not stated; high values mean tight binding; double strand, one strand shown; sequences stand for … in GCCTAGCAC…GTGCTAGGTCTTGATTCGCTTGACGCTGCTG
[1] = molecular target: PU.1 (IVT) (UniProt P17947); experiment: protein-binding microarray (PBM)
[2] = molecular target: T1, FLI1 (endogenous, THP-1 nuclear extract) (UniProt Q01543); experiment: nuclear extract protein-binding microarray (nextPBM)
T1 sequence: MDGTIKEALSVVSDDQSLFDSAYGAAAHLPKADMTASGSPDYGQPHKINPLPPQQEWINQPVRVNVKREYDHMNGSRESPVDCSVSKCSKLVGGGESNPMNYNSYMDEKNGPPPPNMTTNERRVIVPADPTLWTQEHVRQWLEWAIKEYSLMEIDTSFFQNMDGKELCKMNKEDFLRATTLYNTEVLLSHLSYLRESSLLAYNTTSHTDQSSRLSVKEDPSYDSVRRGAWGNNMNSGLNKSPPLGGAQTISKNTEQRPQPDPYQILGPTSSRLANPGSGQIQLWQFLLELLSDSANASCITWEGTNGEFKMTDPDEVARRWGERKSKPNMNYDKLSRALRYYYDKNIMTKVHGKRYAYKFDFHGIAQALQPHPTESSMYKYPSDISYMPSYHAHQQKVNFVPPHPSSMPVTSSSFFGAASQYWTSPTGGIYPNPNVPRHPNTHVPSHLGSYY

[3] = tested on: PU.1 (endogenous, THP-1 nuclear extract) + IRF8 (endogenous, THP-1 nuclear extract); experiment: as above

| Sequence | binding signal [1] | binding signal [2] | binding signal [3] |
| --- | --- | --- | --- |
| TGAGAGGAGAAGTGACACCT | 1.27 z-score | 0.274 z-score | 0.697 z-score |
| CATAAGAGGAACTGAAAGCT | 3.89 z-score | 1.25 z-score | 6.09 z-score |
| TCTCAGAGGAACTGAAACTG | 1.39 z-score | 0.846 z-score | 23.9 z-score |
| TAAAGGAGGAACTGATACCA | 3.55 z-score | 1.2 z-score | 6.52 z-score |
| TAAAGGAGGAACTTAAACCA | 4.25 z-score | 1.56 z-score | -0.382 z-score |
| CTGCCCGGGAAGTGAAAGCA | 0.495 z-score | 1.5 z-score | 4.77 z-score |
| TAAAGGAGGAACTGAAACAA | 3.35 z-score | 1.36 z-score | 9.8 z-score |
| TGGCAGAGGAAGTGTAACTA | 2.88 z-score | 2.25 z-score | 0.875 z-score |
| CTGGCAGGGAACTGAAACTT | 0.701 z-score | 0.157 z-score | 10.4 z-score |
| CTGGCAGGGAATTGAAACTC | 0.0605 z-score | -0.36 z-score | 7.66 z-score |
| GATAAGAGGATCTGAAAGCT | 0.169 z-score | 0.0218 z-score | 0.435 z-score |
| TGAGAGGAGAAGTGAGACCT | 1.06 z-score | -0.262 z-score | 1.47 z-score |
| TTTAAAGGGAAATGAAAGTC | 1.44 z-score | 1.36 z-score | 3.25 z-score |
| TGTCAGAGGAAGTGAAACTA | 2.98 z-score | 3.1 z-score | 66.1 z-score |
| GATATGAGGAACTGAAAGCT | 4.06 z-score | 1.38 z-score | 5.26 z-score |
| GAAATAGGGAAGTGAAACTG | 7.09 z-score | 3.62 z-score | 79.2 z-score |
| CCAATGAGGAAGAGAAACTA | 2.28 z-score | 1.57 z-score | 8.64 z-score |
| TGAAACAGGAAGTGAAACAA | 6.1 z-score | 5.58 z-score | 45 z-score |
| GGGGAGAGGAAGTGAAAGCA | 4.09 z-score | 3.11 z-score | 12.3 z-score |
| ATGCCAGGGAAGTGAAAGCA | 1.31 z-score | 0.724 z-score | 5.59 z-score |

| Sequence | binding signal [1] | binding signal [2] | binding signal [3] |
| --- | --- | --- | --- |
| TAAAGGAGGAACTGAATCCA | 3.67 z-score | 0.857 z-score | 1.08 z-score |
| GATAAGAGGAACTGAAACCT | 4.64 z-score | 2.61 z-score | 33.6 z-score |
| TAGGAGAGGAAGTGAAAGCC | 4 z-score | 2.95 z-score | 5.22 z-score |
| TAAAGGAGGAACTGTAACCA | 3.12 z-score | 0.886 z-score | -0.391 z-score |
| AAAAAGGAGAAGTGAAACTG | 5.92 z-score | 3.24 z-score | 76.1 z-score |
| CTGCCAGGGAAGTGAAATCA | 1.1 z-score | 0.527 z-score | 0.142 z-score |
| ATTTTAGGGAACTGAAAGCC | 4.2 z-score | 1.19 z-score | 3.24 z-score |
| TGAGCGGAGAAGTGAAACCT | 0.175 z-score | 0.291 z-score | 24.3 z-score |
| CTGGCAGGGAACGGAAACTC | 0.518 z-score | 3.59 z-score | 2.69 z-score |
| TTACTGAGGAACTGAAACTC | 1.82 z-score | 0.861 z-score | 18.8 z-score |
| AGAAAGGGGAACTGAAACTC | 6.15 z-score | 3.38 z-score | 47.2 z-score |
| AGAAAGAGGATGTGAAACTT | 3.54 z-score | 3.31 z-score | 44.3 z-score |
| TGGCAGAGGAAGTGAAATTA | 3.38 z-score | 2.81 z-score | 1.65 z-score |
| TCAAGGAGGAACTGAAACCA | 2.91 z-score | 1.63 z-score | 40.3 z-score |
| TGGCAGATGAAGTGAAACTA | 0.23 z-score | -0.744 z-score | 33.3 z-score |
| AAACAAAGGAAATGAAAGTA | 0.659 z-score | 2.26 z-score | 7.4 z-score |
| CAGGGCAGGAAGTGAAACCC | 1.55 z-score | 4.33 z-score | 16.5 z-score |
| AGAAATGGGAAGTGAAACTC | 5.06 z-score | 4.03 z-score | 54.8 z-score |
| TGGGAGGAGAAGTGAAACCT | 1.37 z-score | 0.356 z-score | 21.9 z-score |
| CTGGCAGGGATCTGAAACTC | -0.00696 z-score | 0.0679 z-score | 3.76 z-score |

| Sequence | binding signal [1] | binding signal [2] | binding signal [3] |
| --- | --- | --- | --- |
| CAAAAGAAGAAGTGAAACTT | 3.75 z-score | 1.94 z-score | 43.5 z-score |
| CAGAAAGGGAAGTGAAACTG | 4.81 z-score | 3.32 z-score | 73.5 z-score |
| TAAAGGAGTAACTGAAACCA | -0.147 z-score | -0.198 z-score | 7.84 z-score |
| ATCTTGCAGAAGTGAAACTC | 0.71 z-score | 0.00275 z-score | 29.2 z-score |
| GAAAAGAGGATGTGAAACTG | 3.5 z-score | 3.49 z-score | 52.2 z-score |
| GACAAGAGGAACTGAAAGCT | 2.96 z-score | 1.17 z-score | 3.24 z-score |
| GATAAGAAGAACTGAAAGCT | 0.31 z-score | 0.0726 z-score | 0.474 z-score |
| CTTTTGAGGAACTGAAACTC | 4.02 z-score | 2.34 z-score | 40 z-score |
| TAAAGGAGGACCTGAAACCA | -0.249 z-score | -0.477 z-score | 7.23 z-score |
| CTGGCAGAGAACTGAAACTC | -0.215 z-score | -0.512 z-score | 10.3 z-score |
| TGAGAGGCGAAGTGAAACCT | -0.495 z-score | -0.311 z-score | 17.3 z-score |
| AGAAAGAGGAAGAGAAACTA | 4.62 z-score | 2.48 z-score | 20.3 z-score |
| TGGCTGAGGAAGTGAAACTA | 3.15 z-score | 3.27 z-score | 61 z-score |
| TAAAAAGGGAAGTGAAACTC | 7.11 z-score | 3.73 z-score | 75.9 z-score |
| CTGCCAGGGAAGTGAAAGAA | 1.59 z-score | 0.878 z-score | 2.05 z-score |
| TGGCGGAGGAAGTGAAACTA | 2.7 z-score | 3.26 z-score | 70.1 z-score |
| CTGGCAGGGAACTGAAACAC | 0.334 z-score | -0.223 z-score | -0.415 z-score |
| TCAACAAGGAAGTGAAACTT | 3.32 z-score | 3.26 z-score | 41.2 z-score |
| CAAAGTGGGAACTGAAACTT | 2.37 z-score | 1.1 z-score | 16.1 z-score |
| GAAGAGAGGAAGTGAAACTA | 4.63 z-score | 3.9 z-score | 65.3 z-score |
